# Data published in PubChem BioAssay AID1346428 (National Center for Advancing Translational Sciences (NCATS), 2018).
# Out of some 48,000 compounds screened, about 1,200 (2.5%) were called active. Not shown: some 2% with an inconclusive outcome.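 The calls were made as follows: active = activation of at least 60% and not above a set upper limit (about 1 call in 100 departs from these limits); inconclusive = activation of 40% to 60%, or above that upper limit; inactive = activation under 40%.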 The list shows a part of the results.
# Target: Probable G-protein coupled receptor 32 (Homo sapiens) (UniProt O75388)
# UniProt O75388, sequence (O75388 whole entry, looked up): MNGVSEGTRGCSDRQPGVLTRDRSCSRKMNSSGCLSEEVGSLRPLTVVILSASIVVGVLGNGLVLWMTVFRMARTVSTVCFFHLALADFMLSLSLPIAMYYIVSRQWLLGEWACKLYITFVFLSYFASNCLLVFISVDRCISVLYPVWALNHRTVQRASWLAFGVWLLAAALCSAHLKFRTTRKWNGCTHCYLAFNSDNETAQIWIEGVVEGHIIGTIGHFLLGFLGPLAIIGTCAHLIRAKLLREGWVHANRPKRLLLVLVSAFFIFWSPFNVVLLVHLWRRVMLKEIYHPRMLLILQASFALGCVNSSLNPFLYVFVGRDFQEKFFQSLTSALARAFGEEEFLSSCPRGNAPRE
# Assay: qHTS for Agonists of Human Resolvin D1 Receptor DRV1; also: 0% is about no effect
# Conditions: CHO-K1 GPR32 beta-arrestin PathHunter luminescence, 90 min; at 76.9 µM; stronger effect = higher value; zero percent set by DMSO-only wells
# Method in brief: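 Step 1: seed CHO-K1 GPR32 beta-arrestin cells, 2,500/well, overnight at 37 °C. Step 2: add compounds, 90 min at 37 °C. Step 3: detection reagent, 1 h ambient, then luminescence.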
row,Compound,activation
1,CCc1cccc(NS(=O)(=O)c2ccc3c(c2)N(CC(=O)OC)C(=O)CS3)c1,inactive: -1.41%
2,Cn1cnc(S(=O)(=O)N2CCC(C(=O)Nc3ccc(Cl)c(C(F)(F)F)c3)CC2)c1,inactive: 33.2%
3,CCOC(=O)N1CCC2(CC1)OC(=O)C(C)=C2C(=O)NCc1ccccc1OC,inactive: -15.5%
4,O=C(CSc1nc(=O)[nH]c2c1CCCC2)NCc1ccc(F)cc1,inactive: -0.969%
5,CCOC(=O)c1c(C)c(-c2ccccc2)n(CC(=O)NCCc2cccc(C)c2)c1C,inactive: -10.7%
6,COCCn1c(C)cc(O)c(C(c2ccc(F)cc2)N2CCN(c3ccccc3)CC2)c1=O (stereo unspecified),inactive: -2.38%
7,COc1ccc(CC(=O)NCCS(=O)(=O)N2CCN(c3ccc(F)cc3)CC2)cc1OC,inactive: -2.65%
8,CCNC(=O)c1c(NC(=O)c2nc(S(=O)(=O)CC)ncc2Cl)sc2c1CCCC2,inactive: -2.13%
9,COc1ccccc1NC(=O)c1sc2nc3c(cc2c1N)CN(Cc1ccccc1)CC3,inactive: -22.9%
10,N[C@@H](CC(=O)O)C(=O)O,inactive: 15.5%
11,N#Cc1ccccc1Cn1cnc2nc3c(cc2c1=O)CCCC3,inactive: -4.36%
12,CCc1nc(C)cn1S(=O)(=O)c1ccc(Cl)c(Cl)c1OC,inactive: 18.8%
13,Cc1cccc(C(=O)NC2=NC(c3ccc(Cl)cc3)CC(=O)N2)c1 (stereo unspecified),inactive: -1.82%
14,Cc1nnc2c(N3CCN(c4ccccc4F)CC3)nc3ccc(C(=O)c4ccccc4)cc3n12,inactive: -3.03%
15,CCc1cc(=O)[nH]c(SCc2nc(-c3ccccc3)no2)n1,inactive: 8.38%
16,Cc1cccc(CC(=O)NCc2nc3cccnc3n2Cc2ccc(F)cc2)c1,inactive: -11.8%
17,CCCOc1ccc(C(=O)Nc2ccc(NC(=O)c3ccccc3)c(C)c2)cc1,inactive: -7.48%
18,O=C(Cn1cnc2c(nc3n2CCCCC3)c1=O)Nc1ccc(F)c(Cl)c1,inactive: -5.15%
19,CS(=O)(=O)Nc1ccccc1C(=O)OCc1cc(=O)n2nc(C3CCCCC3)sc2n1,inactive: -19.8%
20,Cc1cc(F)ccc1NC(=O)CS(=O)(=O)c1cccc2nsnc12,inactive: -19%
21,Cc1ccccc1Nc1c(-c2ccccc2)nc2cccc(C)n12,inactive: -19.8%
22,CCOC(=O)C1CCC(CN(Cc2ccc(OC)cc2)S(=O)(=O)c2ccc(F)c(C(=O)Nc3c(C)cccc3C)c2)CC1 (stereo unspecified),inactive: -8.27%

row,Compound,activation
1,O=C(Nc1cccc(Cl)c1)C1CCCN(c2ncnc3c2nc2n3CCCCC2)C1 (stereo unspecified),active: 67.2%
2,COc1ccc(N2CC(NC(=O)C3CCCC3)CC2=O)cc1OC (stereo unspecified),inactive: 1.33%
3,CCOC(=O)C(C#N)=C(c1ccccc1)c1ccccc1,inactive: 4.23%
4,CSc1ccc(CCNC(=O)c2cc3cc(S(=O)(=O)N4CCCCC4)ccc3n2C)cc1,inactive: -9.91%
5,COc1ccc(CNc2nc(SCc3ccccc3Cl)nc3ccccc23)cc1,inactive: -12.6%
6,CCN(C(=O)c1cn(CC(C)C)c(=O)c2cc(OC)c(OC)cc12)c1cc(OC)ccc1OC,inactive: -8.66%
7,CC(C)c1ccc(NC(=O)Cn2nnc(C(=O)NCc3ccc(Cl)cc3)c2N)cc1,inactive: -1.29%
8,COc1ccc2c(c1)sc1ncc(C(=O)NCc3cccc(C)c3)c(=O)n12,inactive: -9.96%
9,COc1ccc(CCNC(=O)c2cn(C)c3ccc(S(=O)(=O)N(C)C)cc3c2=O)cc1OC,inactive: -7.96%
10,CC1CCCN(S(=O)(=O)c2cc3c4c(c2)CC(=O)N4CCC3)C1 (stereo unspecified),inactive: -37.4%
11,Cn1nc(C(=O)N2CCN(c3ccc(F)cc3)CC2)c2c1-c1ccccc1SC2,inactive: -10.7%
12,CCc1ccc(C(=O)c2cn(CC(=O)Nc3cc(F)ccc3F)c3nc(C)ccc3c2=O)cc1,inactive: 27.7%
13,CCCn1cnc2cc(NCc3ccc(OC)cc3OC)ccc21,inactive: -30.4%
14,CCOc1ccc(CC(=O)N2CCc3cc(OC)c(OC)cc3C2COc2ccc3c(C)cc(=O)oc3c2)cc1 (stereo unspecified),inactive: -11%
15,Oc1ccc(NCc2ccc(OCc3ccccc3)cc2)cc1,inactive: -16.6%
16,Cc1cc(=O)oc2cc(OCC(=O)Nc3ccc(O)c(C(=O)O)c3)ccc12,inactive: -0.238%
17,CCCOc1ccc(NC(=O)C(=O)NCCCN2CCOCC2)cc1,inactive: 20.9%
18,CCCCCn1c(=O)[nH]c2cc(C(=O)NCc3ccccc3)ccc2c1=O,inactive: -0.53%
19,CC(C)CNS(=O)(=O)c1ccc(N2CCCCS2(=O)=O)cc1,inactive: 6.95%
20,CCOc1ccc(NC(=O)CCc2c(C)nc3cc(-c4ccc(Cl)cc4)nn3c2C)cc1,inactive: -12.6%
21,Cc1ccc(NC(=O)c2sc(-n3nc(C)c(Cc4ccc5c(c4)OCO5)c3C)nc2C)cc1Cl,inactive: 4.27%
22,Cc1cccc(-c2noc(CNC(=O)c3ccccc3Br)n2)c1,inactive: -2.7%

row,Compound,activation
1,Cc1cccc(Cn2c(SCc3ccc(C(=O)NC4CCCC4)cc3)nc3ccncc32)c1,inactive: -11.9%
2,COc1ccc(CNC(=O)Cc2c(C)c3c(cc(C)c4c(C)c(C)oc43)oc2=O)cc1OC,inactive: -8.2%
3,COc1ccc(CC(=O)Nc2ccc3nc(N4CCCCC4)cc(C)c3c2)cc1,inactive: -9.37%
4,CC1CCN(S(=O)(=O)c2ccc3c(c2)oc(=O)n3CC(=O)O)CC1,inactive: -7.92%
5,Cc1cccc(NC(=O)C2CCN(c3cnccn3)CC2)c1,inactive: 27.4%
6,COc1ccc(Cn2c(=O)c3ccccc3n3c(-c4cccc(OC)c4OC)nnc23)cc1,inactive: 35.9%
7,CCOC(=O)c1c(NC(C)=O)c2c3c(sc2n1Cc1nc(-c2ccccc2Cl)oc1C)CCCC3,inactive: -13.8%
8,Cc1ccc(CNC(=O)c2cc3c(s2)-c2c(C)cccc2OC3)cc1,inactive: 9.5%
9,COc1ccc2c(c1)c1c(c(=O)n(Cc3ccccc3)c(=O)n1CC(=O)NCc1ccccc1)n2C,inactive: 6.75%
10,Cc1cc(C)cc(NC(=O)N2CCN(c3cc(-c4noc(C)n4)ccc3C)CC2)c1,inactive: -4.41%
11,Cc1ncc([N+](=O)[O-])n1C,inactive: -8.02%
12,CCOCCCNC(=O)c1ccc(-n2c(-c3ccccc3)cc3c2CCCCC3)cc1,inactive: -17.8%
13,CN(C)CCN(Cc1ccco1)C(=O)c1oc2ccccc2c1NC(=O)c1cccc(F)c1,inactive: 1.92%
14,CCC(=O)N1CCc2cc(Br)cc(S(=O)(=O)CCC(=O)Nc3cccc(C)c3C)c21,inactive: -5.31%
15,COc1ccc(CNCc2c(C(=O)O)n(Cc3ccc(F)cc3)c3cc(C)ccc23)cc1OC,inactive: 14.9%
16,CNc1ncnc2c1ncn2[C@@H]1O[C@H](CO)[C@@H](O)[C@H]1O,inactive: -7.92%
17,CCOc1ncc(F)c(=O)[nH]1,inactive: 19.3%
18,COc1ccccc1NC(=O)C1=C(C)Nc2ncnn2C1c1cccn1C (stereo unspecified),inactive: 11%
19,CCOc1ccc(CN2C(=O)c3ccccc3C2C(=O)NCCc2ccc(OC)c(OC)c2)cc1 (stereo unspecified),inactive: -5.58%
20,COc1ccc(CNC(=O)Cc2c(C)c3cc4c(C)coc4c(C)c3oc2=O)cc1OC,inactive: -4.24%
21,COc1ccc(Cn2c(CO)cnc2SCc2ccccc2C)cc1,inactive: -12.5%
22,CCOC(=O)c1c(S(=O)(=O)N2CCC(C(=O)Nc3ccc(F)cc3F)CC2)c(C)n(C)c1C,inactive: 0.848%

row,Compound,activation
1,COc1cccc(CCc2ccccc2OCC(CN(C)C)OC(=O)CCC(=O)O)c1 (stereo unspecified),active: 94.8%
2,CC1Cc2cc(S(=O)(=O)CCC(=O)NCc3ccccc3Cl)ccc2N1C(=O)C1CC1 (stereo unspecified),inactive: -4.29%
3,CCOc1ccc(CNS(=O)(=O)c2ccc3c(c2)CCCN3C(C)=O)cc1,inactive: 4.88%
4,COc1ccc(-n2cc(C(=O)Oc3cc(C)cc(C)c3)c3ccccc3c2=O)cc1,inactive: -2.46%
5,COc1cccc(NC(=O)Cn2cc(C(=O)c3ccco3)c3ccccc32)c1,inactive: 3.1%
6,Cc1ccc(C)c(NC(=O)C2CCN(c3cc(C)nc4c(-c5ccc(Cl)cc5)c(C)nn34)CC2)c1,inactive: -1.29%
7,CCC(=O)N1CCc2cc(S(=O)(=O)Nc3cc(C)ccc3OC)ccc21,inactive: 6.52%
8,COc1ccccc1CC(=O)Nc1ccc2nc(Nc3cccc(Cl)c3)cc(C)c2c1,inactive: 13.1%
9,c1ccc2c(c1)CCCC2C1=NCCN1 (stereo unspecified),inactive: 10.7%
10,COc1ccc(-c2csc3ncnc(Nc4cc(OC)cc(OC)c4)c23)cc1,inactive: -10.1%
11,CC(C)C(=O)Nc1ccc2nc(SCC(=O)N3CCc4ccccc43)sc2c1,inactive: 16%
12,Cc1ccc(-n2c(SCC(=O)c3ccccc3)nc3c([nH]c4ccccc43)c2=O)cc1,inactive: -0.42%
13,CC(C)c1ccc(NC(=O)Cn2cc(S(=O)(=O)Cc3ccccc3Cl)c3ccccc32)cc1,inactive: -5.73%
14,O=C(Nc1ccc2oc(-c3cccc(F)c3)nc2c1)c1ccc2ccccc2c1,inactive: -8.71%
15,Cc1cc(C)cc(NC(=O)c2cc(S(=O)(=O)N3CCc4ccccc43)cn2C)c1,inactive: -3.38%
16,COc1ccccc1CNC(=O)c1ccc2c(c1)N(Cc1c(F)cccc1Cl)C(=O)CS2,inactive: -3.93%
17,CC1CCN(C(=O)CSc2nc3ccccc3nc2Cc2ccccc2)CC1,inactive: -27.8%
18,CCOc1ccccc1N1CCN(S(=O)(=O)c2ccc(C3CCCCC3)cc2)CC1,inactive: 1.89%
19,CCCCC(Sc1nc2cc3c(cc2c(=O)n1CCCC(=O)NCc1ccc2c(c1)OCO2)OCO3)C(=O)OCC (stereo unspecified),inactive: -8.07%
20,O=C(CSc1ncc(S(=O)(=O)c2ccc(Br)cc2)c(=O)[nH]1)Nc1ccc2c(c1)OCCO2,inactive: 19.1%
